The assay concerns OVCAR8. The assay can be described thus: cell count relative to DMSO vehicle (fold change); OVCAR8 is a high-grade serous ovarian cancer line and CX-5461 an RNA polymerase I inhibitor; higher = more surviving senescent cells (less killing). As to conditions: senescence inducer: CX-5461 3 µM 48 h, then 6 d recovery (CX senescent), exposure time 24 h.

Structures can show the parent of a compound that is named as a salt. ± gives the standard deviation of the averaged measurements. This is one part of the list.

Regarding `Cc1c(C)c2c(c(C)c1O)CC[C@@](C)(CCC[C@H](C)CCC[C@H](C)CCCC(C)C)O2` [α-Vitamin E], the cell count runs as follows: (compound dose 1 µM) 1.06 ± 0.029; (compound dose 5 µM) 1.11 ± 0.24.
Taken in the same sequence, the figures for `Cc1cc(CS(=O)(=O)c2ccccc2)cc(OCc2ccc(CN3CCC[C@@H]3CO)cc2)c1` [PF-543 (Citrate)] were 1.16 ± 0.11 and 1.1 ± 0.042.
Taken in the same sequence, the figures for `Cc1cc(CS(=O)(=O)c2ccccc2)cc(OCc2ccc(CN3CCC[C@@H]3CO)cc2)c1` were 1.13 ± 0.12 and 1.16 ± 0.081.
Taken in the same sequence, the figures for `NC(=O)NO` were 1.06 ± 0.088 and 1.17 ± 0.16.
As to `C[C@@H]1CC[C@@]2(OC1)O[C@H]1C[C@H]3[C@@H]4CC=C5C[C@@H](O[C@@H]6O[C@H](CO)[C@@H](O)[C@H](O[C@@H]7O[C@H](CO)[C@@H](O)[C@H](O)[C@H]7O)[C@H]6O[C@@H]6O[C@@H](C)[C@H](O)[C@@H](O)[C@H]6O)CC[C@]5(C)[C@H]4CC[C@]3(C)[C@H]1[C@@H]2C` [Gracillin], the cell count worked out at 1.04 ± 0.16 (compound dose 1 µM) and 0.8295 ± 0.0021 (compound dose 5 µM).
Taken in the same sequence, the figures for `CC(C)(C)c1cc(NC(=O)Nc2ccc(-c3cccc4c(N)nccc34)cc2)no1` were 1.06 ± 0.23 and 0.9 ± 0.22.
For `COc1c(OC)c2occc2c2oc(=O)ccc12` the same measures were 0.92 ± 0.081 and 1.07 ± 0.28.
`Cc1ccccc1C(=O)N1CCc2cc(-c3nc(NC(=O)Cc4ccc5c(c4)OCO5)sc3C)ccc21`: the cell count is, setting by setting: (compound dose 1 µM) 1.017 ± 0.0057; (compound dose 5 µM) 1 ± 0.17.
Taken in the same sequence, the figures for `Nc1nc(Nc2ccc(S(N)(=O)=O)cc2)nn1C(=O)c1c(F)cccc1F` were 0.797 ± 0.15 and 0.45 ± 0.24.
Turning to `Cc1[nH]c(/C=C2\C(=O)Nc3ccc(S(=O)(=O)Cc4c(Cl)cccc4Cl)cc32)c(C)c1C(=O)N1CCC[C@@H]1CN1CCCC1`, the cell count by setting is: (compound dose 1 µM) 1.22 ± 0.19; (compound dose 5 µM) 0.554 ± 0.19.
Taken in the same sequence, the figures for `CC(C)[C@H](NC(=O)c1ccc2ccccc2n1)C(=O)N[C@@H](CC(=O)O)C(=O)COc1c(F)cccc1F` were 0.949 ± 0.15 and 0.907 ± 0.21.
`Cc1ccc(NC(=S)NNc2c([N+](=O)[O-])cc(C(F)(F)F)cc2[N+](=O)[O-])cc1Cl` came in with a cell count (compound dose 1 µM) of 1.17 ± 0.12 and a cell count (compound dose 5 µM) of 1.2 ± 0.32.
For `COc1c(O)cc(O)c2c(=O)cc(-c3ccccc3)oc12` [Wogonin] the same measures were 1.07 ± 0.23 and 0.926 ± 0.2.
Taken in the same sequence, the figures for `CCOc1nc2cccc(C(=O)OC(C)OC(=O)OC3CCCCC3)c2n1Cc1ccc(-c2ccccc2-c2nn[nH]n2)cc1` (stereo unspecified) [Candesartan Cilexetil] were 1.08 ± 0.069 and 1.13 ± 0.24.
Taken in the same sequence, the figures for `COc1ccc(-c2oc3c(CC=C(C)C)c(O)cc(O)c3c(=O)c2O)cc1` [Icaritin] were 1.16 ± 0.19 and 1.14 ± 0.3.
Consider `CCCNS(=O)(=O)Nc1ncnc(OCCOc2ncc(Br)cn2)c1-c1ccc(Br)cc1` [Macitentan], for which the cell count (compound dose 1 µM) worked out at 1.09 ± 0.43 and the cell count (compound dose 5 µM) worked out at 1.08 ± 0.21.
With `COC(=O)c1c2c(c3ccccc3c1O)OC(C)(C)C=C2` [Mollugin], the cell count by setting is: (compound dose 1 µM) 0.845 ± 0.073; (compound dose 5 µM) 0.078 ± 0.025.
Taken in the same sequence, the figures for `CC1(C)CCN(CCOc2ccc3[nH]ccc3c2)c2ccc(-c3cccnc3)cc21` were 1.14 ± 0.081 and 1.15 ± 0.053.
For `COc1ccc(/C=C/C(=O)C2(C(=O)/C=C/c3ccc(OC)c(OC)c3)CCCCC2)cc1OC`, the cell count is, setting by setting: (compound dose 1 µM) 1.07 ± 0.03; (compound dose 5 µM) 0.862 ± 0.037.
For `CC(C)C(C(=O)O)N1C(=O)C(=Cc2ccc(Br)cc2)SC1=S` (stereo unspecified) the same measures were 1.07 ± 0.26 and 1.01 ± 0.097.
For `Nc1ncnc2c1c(-c1cccc(OCc3ccccc3)c1)cn2C1CC(CN2CCCC2)C1` (stereo unspecified) the same measures were 1.02 ± 0.21 and 0.966 ± 0.11.
Take `Cc1cc2ncnn2cc1Nc1ncc2c(n1)n(C1CCOCC1)c(=O)n2C`: the cell count reads like this: (compound dose 1 µM) 1.24 ± 0.33; (compound dose 5 µM) 1.21 ± 0.34.
Taken in the same sequence, the figures for `CC(=O)O[C@H]1CC[C@]2(C)[C@H]3CC=C4[C@@H]5CC(C)(C)CC[C@]5(C(=O)O)CC[C@@]4(C)[C@]3(C)CC[C@H]2C1(C)C` were 1.029 ± 0.0042 and 1.01 ± 0.1.
As for `O=C(Nc1cc(Cl)cc2c1[nH]c1cnccc12)c1cccnc1`, the cell count by setting is: (compound dose 1 µM) 1.18 ± 0.013; (compound dose 5 µM) 1.161 ± 0.0057.
For `C[C@@H]1CC[C@]2(C(=O)O[C@@H]3O[C@H](CO)[C@@H](O)[C@H](O)[C@H]3O)CC[C@]3(C)C(=CC[C@@H]4[C@@]5(C)CC[C@H](O[C@@H]6OC[C@H](O)[C@H](O)[C@H]6O)C(C)(C)[C@@H]5CC[C@]43C)[C@@H]2[C@]1(C)O` [Ziyuglycoside I] the same measures were 0.787 ± 0.0085 and 1.12 ± 0.23.
For `O=S(=O)(NCCN1CCNCC1)c1ccc(NC2CCCCC2)c(NCc2ccccc2)c1` [UAMC-3203 hydrochloride] the same measures were 1.04 ± 0.16 and 1.06 ± 0.021.
On to `COc1cc(N2CCC(N3CCN(C)CC3)CC2)ccc1Nc1ncc(Cl)c(Nc2ccccc2S(=O)(=O)C(C)C)n1`, for which the cell count was 1.09 ± 0.073 (compound dose 1 µM) and 1.02 ± 0.23 (compound dose 5 µM).
`CC(C)c1nc(CN(C)C(=O)N[C@H](C(=O)N[C@@H](Cc2ccccc2)C[C@H](O)[C@H](Cc2ccccc2)NC(=O)OCc2cncs2)C(C)C)cs1` [Ritonavir]: the cell count turned out to be 0.999 ± 0.041 (compound dose 1 µM) and 0.943 ± 0.02 (compound dose 5 µM).
For `COc1ccc(CCCOC(Cn2ccnc2)c2ccc(OC)cc2)cc1` (stereo unspecified) the same measures were 1.1 ± 0.099 and 1.15 ± 0.12.
Taken in the same sequence, the figures for `COc1c(O)cc2c(c1O)[C@@H]1O[C@H](CO)[C@@H](O)[C@H](O)[C@H]1OC2=O` [Bergenin] were 1.16 ± 0.064 and 1.13 ± 0.23.
For `O=c1c(N=Nc2nccs2)c(-c2ccccc2)[nH]n1-c1nc(-c2ccccc2)cs1` the same measures were 1.1 ± 0.14 and 1.03 ± 0.24.
In the case of `COc1cc(C[C@H]2C(=O)OC[C@@H]2Cc2ccc(OC)c(OC)c2)ccc1O` [Arctigenin], the cell count reads like this: (compound dose 1 µM) 1.17 ± 0.14; (compound dose 5 µM) 0.922 ± 0.24.
Taken in the same sequence, the figures for `CO[C@H]1CC[C@H](N2C(=O)CNc3ncc(-c4ccc(C(C)(C)O)nc4)nc32)CC1` were 1.08 ± 0.031 and 1.13 ± 0.1.
